Our source for the binding values is article PMC9410898.

Sequences of proteins named here, by UniProt entry; tags and fusion partners are left off.
UniProt Q9NQT4: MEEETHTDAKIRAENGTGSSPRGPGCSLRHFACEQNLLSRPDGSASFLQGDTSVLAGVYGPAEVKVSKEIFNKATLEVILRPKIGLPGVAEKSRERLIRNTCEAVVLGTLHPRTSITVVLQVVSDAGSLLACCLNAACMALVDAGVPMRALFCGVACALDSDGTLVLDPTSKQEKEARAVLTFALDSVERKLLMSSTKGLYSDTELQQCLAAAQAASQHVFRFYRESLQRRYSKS
UniProt Q06265: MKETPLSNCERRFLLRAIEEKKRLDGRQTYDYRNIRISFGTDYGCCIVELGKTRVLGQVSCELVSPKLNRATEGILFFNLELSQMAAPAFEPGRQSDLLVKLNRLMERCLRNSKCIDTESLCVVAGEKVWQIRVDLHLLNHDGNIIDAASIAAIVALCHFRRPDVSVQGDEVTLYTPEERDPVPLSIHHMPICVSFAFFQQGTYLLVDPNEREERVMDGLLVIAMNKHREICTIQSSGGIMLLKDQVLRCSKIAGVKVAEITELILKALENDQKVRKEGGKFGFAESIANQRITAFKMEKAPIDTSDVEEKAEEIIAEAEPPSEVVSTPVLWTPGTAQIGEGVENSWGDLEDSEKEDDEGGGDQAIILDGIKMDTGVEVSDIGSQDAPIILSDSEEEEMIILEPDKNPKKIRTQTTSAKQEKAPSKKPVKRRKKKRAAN

In one assay the target is T1, GST-MPP6 ΔC11 (human) (UniProt Q99547).
T1 sequence: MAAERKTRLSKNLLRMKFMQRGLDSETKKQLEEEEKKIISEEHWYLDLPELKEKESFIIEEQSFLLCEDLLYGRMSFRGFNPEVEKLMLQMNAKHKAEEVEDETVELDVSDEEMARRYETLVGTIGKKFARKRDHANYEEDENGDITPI
The assay is described as follows: pull-down; GST-MPP6 proteins on glutathione beads, 3 h at 4°C with nuclear extract of FLAG-RRP45 expressing HeLa Flp-In T-REx cells (preincubated with GST beads), PBS with 0.1% Triton X-100, 0.2 mM PMSF, 0.5 mM DTT; immunoblot; only the target purified.

In the next assay the target is T2, GST-MPP6 ΔN35 (human) (UniProt Q99547).
T2 sequence: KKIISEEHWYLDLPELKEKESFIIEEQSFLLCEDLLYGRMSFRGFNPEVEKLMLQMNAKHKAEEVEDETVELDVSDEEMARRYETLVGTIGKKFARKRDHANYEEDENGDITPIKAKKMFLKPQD
Described as above.

The next assay concerns the target T3, GST-MPP6 ΔC33 (human) (UniProt Q99547).
T3 sequence: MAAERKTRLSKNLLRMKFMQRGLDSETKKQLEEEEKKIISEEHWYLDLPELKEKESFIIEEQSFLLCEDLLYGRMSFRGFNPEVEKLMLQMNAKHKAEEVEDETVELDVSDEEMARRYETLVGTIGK
The description is as above.

Assay [1] deals with T4, GST-MPP6 full-length (human) (UniProt Q99547).
T4 sequence: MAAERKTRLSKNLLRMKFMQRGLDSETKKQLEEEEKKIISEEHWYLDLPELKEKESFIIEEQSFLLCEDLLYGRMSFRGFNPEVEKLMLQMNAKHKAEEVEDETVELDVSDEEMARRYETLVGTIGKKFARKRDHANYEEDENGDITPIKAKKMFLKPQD
The assay is described as above.

Assay [2] addresses RRP46 (human (endogenous in HeLa)) (UniProt Q9NQT4). The assay is described as follows: co-IP; anti-MTR4 antiserum or anti-RRP46 antibody on beads, nuclear extracts of HeLa Flp-In T-REx cells expressing FLAG-fused MPP6 mutants, overnight at 4°C; washed with PBS, 0.1% Triton X-100; immunoblot; rabbit pre-immune antiserum as control.
Assay [3] addresses T5, MTR4 (human (endogenous in HeLa)) (UniProt P42285).
T5 sequence: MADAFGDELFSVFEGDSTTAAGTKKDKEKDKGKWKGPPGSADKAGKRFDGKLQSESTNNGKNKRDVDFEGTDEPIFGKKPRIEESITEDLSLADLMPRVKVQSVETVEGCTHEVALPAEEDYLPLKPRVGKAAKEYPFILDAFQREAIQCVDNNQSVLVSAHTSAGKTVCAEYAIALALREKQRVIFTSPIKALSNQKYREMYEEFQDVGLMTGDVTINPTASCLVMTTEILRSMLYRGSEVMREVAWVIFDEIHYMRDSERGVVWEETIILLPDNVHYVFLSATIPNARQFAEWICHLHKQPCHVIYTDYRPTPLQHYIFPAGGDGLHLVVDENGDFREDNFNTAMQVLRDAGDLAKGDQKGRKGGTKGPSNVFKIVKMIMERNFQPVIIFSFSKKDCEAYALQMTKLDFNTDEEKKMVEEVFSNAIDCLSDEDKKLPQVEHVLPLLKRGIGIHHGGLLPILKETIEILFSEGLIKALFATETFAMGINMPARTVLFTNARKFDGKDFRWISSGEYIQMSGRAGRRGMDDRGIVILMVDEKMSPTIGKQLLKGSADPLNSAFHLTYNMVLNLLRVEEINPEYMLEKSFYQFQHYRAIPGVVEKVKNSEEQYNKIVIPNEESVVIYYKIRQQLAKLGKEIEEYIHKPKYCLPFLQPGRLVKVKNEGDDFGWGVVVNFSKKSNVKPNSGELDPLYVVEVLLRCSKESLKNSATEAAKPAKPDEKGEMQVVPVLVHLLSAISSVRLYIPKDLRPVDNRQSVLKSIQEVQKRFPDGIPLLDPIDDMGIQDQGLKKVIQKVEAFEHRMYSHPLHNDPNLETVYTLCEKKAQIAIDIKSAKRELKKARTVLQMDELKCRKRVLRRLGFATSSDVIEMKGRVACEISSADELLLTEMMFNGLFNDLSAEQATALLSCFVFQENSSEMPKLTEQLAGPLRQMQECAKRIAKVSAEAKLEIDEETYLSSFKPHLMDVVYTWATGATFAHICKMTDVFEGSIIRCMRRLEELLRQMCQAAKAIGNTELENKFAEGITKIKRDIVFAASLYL
Described as above.

For assay [4], the target named is T6, GST-MPP6 with the internal region 47–68 deleted (human) (UniProt Q99547).
T6 sequence: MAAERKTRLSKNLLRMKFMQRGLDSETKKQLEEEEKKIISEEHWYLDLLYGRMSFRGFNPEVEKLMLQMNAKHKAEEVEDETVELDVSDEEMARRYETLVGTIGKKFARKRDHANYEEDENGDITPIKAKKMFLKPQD
The assay is described as follows: pull-down; GST-MPP6 proteins on glutathione beads, 3 h at 4°C with nuclear extract of FLAG-RRP45 expressing HeLa Flp-In T-REx cells (preincubated with GST beads), PBS with 0.1% Triton X-100, 0.2 mM PMSF, 0.5 mM DTT; immunoblot; only the target purified.

The target in assay [5] is T7, GST-MPP6 with the internal region 81–105 deleted (human) (UniProt Q99547).
T7 sequence: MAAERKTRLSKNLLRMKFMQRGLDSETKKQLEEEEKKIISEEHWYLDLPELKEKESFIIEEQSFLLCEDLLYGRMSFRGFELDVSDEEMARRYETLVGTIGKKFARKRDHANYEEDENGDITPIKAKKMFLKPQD
The description is as above.

No constants are given. Whether binding was seen depends on the method and setting. Binding seen in cells or lysates may run through a third protein. Some entries that bind do so weakly or less than the wild type. Where a sequence is shown, tags or fusion partners need not be part of it.

For the molecule FLAG-RRP45 (from UniProt Q06265 1-439), the binding result (with GST-MPP6 ΔC11 (human); with GST-MPP6 ΔN35 (human); with GST-MPP6 ΔC33 (human); in assay [1]) was “binds” throughout.

B1: FLAG-MPP6 full-length (protein, UniProt Q99547 1-160)
chain: T4 sequence
Turning to B1, the binding entry in assay [2] and in assay [3] was “binds” in each case.

B2: RRP6 (protein, UniProt Q01780 1-885)
chain: MAPPSTREPRVLSATSATKSDGEMVLPGFPDADSFVKFALGSVVAVTKASGGLPQFGDEYDFYRSFPGFQAFCETQGDRLLQCMSRVMQYHGCRSNIKDRSKVTELEDKFDLLVDANDVILERVGILLDEASGVNKNQQPVLPAGLQVPKTVVSSWNRKAAEYGKKAKSETFRLLHAKNIIRPQLKFREKIDNSNTPFLPKIFIKPNAQKPLPQALSKERRERPQDRPEDLDVPPALADFIHQQRTQQVEQDMFAHPYQYELNHFTPADAVLQKPQPQLYRPIEETPCHFISSLDELVELNEKLLNCQEFAVDLEHHSYRSFLGLTCLMQISTRTEDFIIDTLELRSDMYILNESLTDPAIVKVFHGADSDIEWLQKDFGLYVVNMFDTHQAARLLNLGRHSLDHLLKLYCNVDSNKQYQLADWRIRPLPEEMLSYARDDTHYLLYIYDKMRLEMWERGNGQPVQLQVVWQRSRDICLKKFIKPIFTDESYLELYRKQKKHLNTQQLTAFQLLFAWRDKTARREDESYGYVLPNHMMLKIAEELPKEPQGIIACCNPVPPLVRQQINEMHLLIQQAREMPLLKSEVAAGVKKSGPLPSAERLENVLFGPHDCSHAPPDGYPIIPTSGSVPVQKQASLFPDEKEDNLLGTTCLIATAVITLFNEPSAEDSKKGPLTVAQKKAQNIMESFENPFRMFLPSLGHRAPVSQAAKFDPSTKIYEISNRWKLAQVQVQKDSKEAVKKKAAEQTAAREQAKEACKAAAEQAISVRQQVVLENAAKKRERATSDPRTTEQKQEKKRLKISKKPKDPEPPEKEFTPYDYSQSDFKAFAGNSKSKVSSQFDPNKQTPSGKKCIAAKKIKQSVGNKSMSFPTGKSDRGFRYNWPQR
Turning to B2, the binding entry (in assay [4]; in the assay with GST-MPP6 ΔC11 (human); with GST-MPP6 ΔN35 (human); in the assay with GST-MPP6 ΔC33 (human); in assay [1]; in assay [5]) was “binds” each time.

B3: FLAG-MPP6 ΔN4 (domain or fragment, UniProt Q99547 5-160)
chain: RKTRLSKNLLRMKFMQRGLDSETKKQLEEEEKKIISEEHWYLDLPELKEKESFIIEEQSFLLCEDLLYGRMSFRGFNPEVEKLMLQMNAKHKAEEVEDETVELDVSDEEMARRYETLVGTIGKKFARKRDHANYEEDENGDITPIKAKKMFLKPQD
With B3, the binding result in assay [2] and in assay [3] was “binds” throughout.

B4: FLAG-MPP6 Δ19–35 (protein, UniProt Q99547)
chain: MAAERKTRLSKNLLRMKFKKIISEEHWYLDLPELKEKESFIIEEQSFLLCEDLLYGRMSFRGFNPEVEKLMLQMNAKHKAEEVEDETVELDVSDEEMARRYETLVGTIGKKFARKRDHANYEEDENGDITPIKAKKMFLKPQD
On to B4, for which the binding entry is listed as “binds” in assay [2] and “no binding” in assay [3].

B5: FLAG-MPP6 ΔN35 (domain or fragment, UniProt Q99547 36-160)
chain: T2 sequence
With B5, the figures for the binding result in assay [2] and in assay [3] were “binds” and “no binding”, respectively.

B6: FLAG-MPP6 Δ5–18 (protein, UniProt Q99547)
chain: MAAEMQRGLDSETKKQLEEEEKKIISEEHWYLDLPELKEKESFIIEEQSFLLCEDLLYGRMSFRGFNPEVEKLMLQMNAKHKAEEVEDETVELDVSDEEMARRYETLVGTIGKKFARKRDHANYEEDENGDITPIKAKKMFLKPQD
Take B6: the binding entry is listed as “binds” in assay [2] and “no binding” in assay [3].
